The list shows a part of the results.

Here are results for 22 molecules from publication PMC12136788.

The chains are these.
B1: ENSG00000107863:be:win_5601|CDS|ENSG00000107863|bound_else_gene|NA|bound_elsewhere_windowed (ssRNA)
RNA: GGGAGUUCUACAGUCCGACGAUCAGGAGAAAUCGGAGAUCCCCAGACAGAGAACCCAAGCACACGAGAAAUAGCCACGACCGACACACCUUUGUCUCUUCAUUGCAACACAGGCAGUUCUUCCAGCACCUUGGCUUCAACAAACAACAGAGGAUUGAGCAUCA
B2: chr2:159349074:159349175:-|CDS|ENSG00000123636|unk|FALSE|unique (ssRNA)
RNA: GGGAGUUCUACAGUCCGACGAUCUGGUGUGGUUACUUCUAAUAUUCCAUUUACAUCAUCUGUACCUAGUCUAGGAUCGGGGUUAGGGUUAUCAGAAGGAAAUGGUAAUUCAUUCUUGACUUCCAAUGUUGCUUCAAGUAAAAGCAACAGAGGAUUGAGCAUCA
B3: ENSG00000198589:be:win_2201|CDS|ENSG00000198589|bound_else_gene|NA|bound_elsewhere_windowed (ssRNA)
RNA: GGGAGUUCUACAGUCCGACGAUCGAAUCAGGGUACAAGCUCUUAAGGCAAUGGGUUAUUUUUUAAAACAUCUGGCCCCAAAGAGGAAAGCAGAAGUCAUGCUUGGACAUGGAUUGUUUUCAUUGCUAGCUGAAAGGCUCAUGCCAACAGAGGAUUGAGCAUCA
B4: chr5:56881662:56881777:+|CDS|ENSG00000095015|unk|FALSE|unique (ssRNA)
RNA: GGGAGUUCUACAGUCCGACGAUCGAUCUACUUGAGUUCUGCAAGAAUGGUUACUACAGUACCCCAUGUGUUUUCAAAACUGUUAGAAAUGCUGAGUGUUUCCAGUUCCACUCACUUCACCAGGAUGCGUCGCCGUUUGAUGGCCAACAGAGGAUUGAGCAUCA
B5: chr2:128192346:128192447:+|3pUTR|ENSG00000136731|msi1|total|mutant (ssRNA)
RNA: GGGAGUUCUACAGUCCGACGAUCAGAAAAUGAUGUUACCACUAAAAUAUUUUCUCCAAGAAGGCAUACUGUAACAGAAAAGACCGGUAAGAUAUUUUUUUCCCAAGAAGUAAGAAUUGAUUGUGCUGAAUGUUCAAACUCUGGCAACAGAGGAUUGAGCAUCA
B6: chr15:22826343:22826444:+|3pUTR|ENSG00000170113|msi1|total|mutant (ssRNA)
RNA: GGGAGUUCUACAGUCCGACGAUCAAAGUCCAUUACUCUUUUUAUUGGCUCUUGCAGGUUUUGUGUUUUAUCAUCAGUGCUUUCCGAAAUGCAGGCCUUAACUUACUGAACUGAACUUUCUGAAAACGUAAUGCCGCAGUAUCACAACAGAGGAUUGAGCAUCA
B7: chrX:153456492:153456651:-|CDS|ENSG00000213397|control|control|control (ssRNA)
RNA: GGGAGUUCUACAGUCCGACGAUCAUGGAGCACUUCGAGGACACCAGGGAGAAGAACGAGGCCUUGCUGGGGGAGCUCUUCUCUAGCCCCCACCUGCAGAUGCUCCUGAAUCCAGAGUGCGACCCGUGGCCCCUGGACAUGCAGCAACAGAGGAUUGAGCAUCA
B8: chr17:63968022:63968355:-|CDS|ENSG00000007314|control|control|control (ssRNA)
RNA: GGGAGUUCUACAGUCCGACGAUCGAAAAAGCUGUCGGAUGUGAUGAUCCUCACUGUCUUCUGCCUGAGCGUCUUUGCGCUGGUAGGACUGCAGCUCUUCAUGGGAAACCUGAGGCAGAAGUGUGUGCGCUGGCCCCCGCCGUUCAACAGAGGAUUGAGCAUCA
B9: chr8:79641408:79641533:+|CDS|ENSG00000104435|unk|total|mutant (ssRNA)
RNA: GGGAGUUCUACAGUCCGACGAUCCCAGGCUUUUGAGCUGAUCUUGAAGCCACCAUCUCCUAUCUCAGAAGCCCCACGAACUUCCGCUUCUCCAAAGAAGAAAGACCUGUCCCUGGAGGAGAUCCAGAAGAAACUGGAGGCUGCCAACAGAGGAUUGAGCAUCA
B10: chr12:103777333:103777434:-|3pUTR|ENSG00000111696|msi1|FALSE|unique (ssRNA)
RNA: GGGAGUUCUACAGUCCGACGAUCUCCUGAACAUUUACGGGCUAUGCAUUGGGAACUGCAGGGGCACAGUGAUGGGCAAAGAUUAGCUGCUUCCAGAAGGCUGAUUUCGUGGGCUCCACAAUGGUAAAACGCUGCUGUGAGUGGCAACAGAGGAUUGAGCAUCA
B11: ENSG00000156976:stop:overlap|stop_codon|ENSG00000156976|stop_codon|NA|stop_codon (ssRNA)
RNA: GGGAGUUCUACAGUCCGACGAUCCUUUGGUUAUAAAUUAUGAUCUACCUACCAAUCGUGAAAACUAUAUUCACAGGAGUCGAUAGCAGCAGUUGGUGACGAGAUGGCACUCAGAAACGGCGUUGACGUAAUUUAGGACGUGGACAACAGAGGAUUGAGCAUCA
B12: chr10:71816642:71816777:-|3pUTR|ENSG00000197746|msi1_unk|total|mutant (ssRNA)
RNA: GGGAGUUCUACAGUCCGACGAUCUUGUUUGGGGUUCUGUGGGUUUGGGUGGGAAGAGGGCCAUCUGCCUGAAUGUAACCUGCCCGCUCUCCGAAGGCCCUGCGGGCCUGGCUUGUGUGAGCGUGUGGACAGUGGUGGCCGCGCCAACAGAGGAUUGAGCAUCA
B13: chr18:62902975:62903076:+|CDS|ENSG00000081913|unk|FALSE|unique (ssRNA)
RNA: GGGAGUUCUACAGUCCGACGAUCAGUGGACUUUCUACAGCAUGUUACUCAGCUUGACCUACGAGACAAUAAGCUUGGUGAUCUAGAUGCUAUGAUUUUCAACAACAUUGAAGUUUUACACUGUGAAAGGAAUCAACUGGUCACCAACAGAGGAUUGAGCAUCA
B14: chr16:30610213:30610351:-|CDS|ENSG00000289491|control|control|control (ssRNA)
RNA: GGGAGUUCUACAGUCCGACGAUCCUCCGGUCAAUAAAAUCGAUAGCUGGAAGCUGCCUGUGUUCCAGGCAAAGGCGGUGCGGUAGCAGCGCCGCCAUUUUCCCCGAAGGCAUCUUCCGGUGCCUUUCACCCAAGUUCGGGCAGCAACAGAGGAUUGAGCAUCA
B15: chr12:101746137:101746238:-|3pUTR|ENSG00000111670|msi1|FALSE|unique (ssRNA)
RNA: GGGAGUUCUACAGUCCGACGAUCGGUUAGUAAAUUAUUGCAGGCCACCUGUGUCUUUGUCAUACAUUCUUCUUGCUGUUGUUUAGUUUGUUUUUUUUCAAACAACCCUCUAAAAAUGUAAAAACCAUGUUUAGCUUGCAGCUGCAACAGAGGAUUGAGCAUCA
B16: chr19:41261474:41261596:+|3pUTR|ENSG00000167601|msi1|total|mutant (ssRNA)
RNA: GGGAGUUCUACAGUCCGACGAUCUCUAAAGGUCCACAGGUCCCGACUAUCCGGUGCAAUUUCAAGGUUCUAACCCUAUACUGCCGUAUUCUUUGGGGUGCCCCUCUCCUUCUCCGCUAUCAUUGCUUCCUCCUCCCCAACUGUCAACAGAGGAUUGAGCAUCA
B17: chr10:72011937:72012038:+|3pUTR|ENSG00000122863|msi1|FALSE|unique (ssRNA)
RNA: GGGAGUUCUACAGUCCGACGAUCCAUACACCGCAGGUGGUCACCGAGUUAUUUUCCAAAAGCUGAGGAACAUAAAGCAAAUUUAGGCUUUUGUCCUUCUGCAAUACAUGCACUUGAAAAUAAACAGAAAAGAGAUGUUUAAUACAACAGAGGAUUGAGCAUCA
B18: ENSG00000198589:be:win_2251|CDS|ENSG00000198589|bound_else_gene|NA|bound_elsewhere_windowed (ssRNA)
RNA: GGGAGUUCUACAGUCCGACGAUCGCCCCAAAGAGGAAAGCAGAAGUCAUGCUUGGACAUGGAUUGUUUUCAUUGCUAGCUGAAAGGCUCAUGCUUCAGACAAAUUUAAUCACAAUGACCACAUAUAAUGUGCUGUUUGAGAUUCAACAGAGGAUUGAGCAUCA
B19: ENSG00000107863:be:win_3001|CDS|ENSG00000107863|bound_else_gene|NA|bound_elsewhere_windowed (ssRNA)
RNA: GGGAGUUCUACAGUCCGACGAUCAGUGAGACCAAGAGGAAAAAUGUGUUUCGACUCACCACGUCCGACUGUGAAUGCCUGUUUCAGGCUGAAGACAGAGAUGAUAUGCUAGCUUGGAUCAAGACGAUCCAGGAGAGCAGCAACCAACAGAGGAUUGAGCAUCA
B20: chr22:36281740:36281783:-|3pUTR|ENSG00000100345|msi1_unk|FALSE|overlapping (ssRNA)
RNA: GGGAGUUCUACAGUCCGACGAUCUCUGACAGCCAGAGCGUUAGAGGGGCCAGCGGCCCUCCCAGGCGAUCUUGUGUCUACUCUAGGACUGGGCCCGAGGGUGGUUUACCUGCACCGUUGACUCAGUAUAGUUUAAAAAUCUGCCAACAGAGGAUUGAGCAUCA
B21: chr3:154276180:154276282:-|CDS|ENSG00000174953|unk|FALSE|unique (ssRNA)
RNA: GGGAGUUCUACAGUCCGACGAUCUCAUCCUGUAGACUGGAAUGACACUAAAUCCAGAGACUGUGCAGUACUGUCAGCUAUUAUAGACUUGAUCAAAACACAGGAAAAGGCAACUCCCAGGAACUUUCCGCCACGAUUCCAGGACAACAGAGGAUUGAGCAUCA
B22: ENSG00000107863:be:win_6151|3pUTR|ENSG00000107863|bound_else_gene|NA|bound_elsewhere_windowed (ssRNA)
RNA: GGGAGUUCUACAGUCCGACGAUCAGAAAAUCGCUGGCAUCAGUGUGCAGCAAAUUUGUUCUUUUGGUUUCAUCACUAACAAAAGUGCCUCAUCAUAAAAAUACAGUUGGUUUUUAGGGUGCCAUAUUGUUAAAAUUAGAUAACCAACAGAGGAUUGAGCAUCA

This assay has as its target T1, UNK ZnF1-6 (called full-length) (human, UniProt Q9C0B0 30-357).
T1 sequence: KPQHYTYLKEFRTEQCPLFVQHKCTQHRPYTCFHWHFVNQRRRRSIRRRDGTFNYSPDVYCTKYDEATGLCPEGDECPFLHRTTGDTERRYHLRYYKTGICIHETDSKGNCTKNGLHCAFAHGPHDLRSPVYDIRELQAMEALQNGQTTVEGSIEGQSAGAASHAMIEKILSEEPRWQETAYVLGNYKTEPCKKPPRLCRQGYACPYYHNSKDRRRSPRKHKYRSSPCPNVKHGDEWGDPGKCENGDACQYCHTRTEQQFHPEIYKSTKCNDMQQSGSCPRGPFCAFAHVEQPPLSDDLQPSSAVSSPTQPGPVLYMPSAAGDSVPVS
The assay is described as follows: nsRBNS (natural sequence RNA bind-n-seq); RBNS binding buffer (assumed for nsRBNS): 25 mM Tris pH 7.5, 150 mM KCl, 3 mM MgCl2, 0.01% Triton X-100, 500 ug/ml BSA, 20 U/ml SUPERase-In, 4 C; UNK is unkempt and MSI1 is Musashi-1; names of the RNAs are library labels; protein concentration not given here; high values mean tight binding.
The molecule B1 displayed a binding signal of 0.83 enrichment R. B2 registered a binding signal of 0.397 enrichment R. Next, B3: 0.449 enrichment R. In the case of B4, the binding signal was 0.551 enrichment R. The same measure for B5: 0.522 enrichment R. The same measure for B6: 0.431 enrichment R.

Regarding B7, the binding signal came to 0.759 enrichment R. Turning to B8, the binding signal came to 0.782 enrichment R.

Consider B9, for which the binding signal was 0.67 enrichment R.

Regarding B10, the binding signal turned out to be 0.832 enrichment R.

B11 had a binding signal of 0.52 enrichment R. Next, B12: 0.901 enrichment R; B13: 0.286 enrichment R; B14: 0.594 enrichment R. Take B15: the binding signal is 1.57 enrichment R.

B16 showed a binding signal of 0.827 enrichment R. The same measure for B17: 0.538 enrichment R; for B18: 0.385 enrichment R. Next, B19: 0.516 enrichment R; B20: 0.817 enrichment R.

On to B21, for which the binding signal stood at 0.566 enrichment R. The molecule B22 registered a binding signal of 0.619 enrichment R.
